# Source: the supplement of paper PMC8728848
# The list shows a part of the results.
# B1: SEX4 (Arabidopsis thaliana), Q944A8 (protein)
# chain: TQAMGAVLTYRHELGMNYNFIRPDLIVGSCLQTPEDVDKLRKIGVKTIFCLQQDPDLEYFGVDISSIQAYAKKYSDIQHIRCEIRDFDAFDLRMRLPAVVGTLYKAVKRNGGVTYVHCTAGMGRAPAVALTYMFWVQGYKLMEAHKLLMSKRSCFPKLDAIRNATIDILTGLKRKTVTLTLKDKGFSRVEISGLDIGWGQRIPLTLGKGTGFWILKRELPEGQFEYKYIIDGEWTHNEAEPFIGPNKDGHTNNYAKVVDDPTSVDGTTRERLSSEDPELLEEERSKLIQFLETCSEAEV
# Legend:
# Experiment in all cases: glycan array binding signal (z-score within array); higher = stronger binding
# Settings in all cases: glycan notation: IUPAC condensed, linker removed
# [1] = molecular target: Gal(a1-3)Gal(b1-4)[Fuc(a1-3)]GlcNAc
# Summary of the method: (§1)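 The binding signal is a Z-score computed within each array and averaged over linkers. Arrays of the same protein sequence at different concentrations or buffers were also averaged together. Data originate from 3228 arrays in the Consortium for Functional Glycomics database, kept only where the protein sequence was available.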
# [2] = molecular target: Gal(a1-3)Gal(b1-4)[Fuc(a1-3)]GlcNAc(b1-2)Man(a1-3)[Gal(a1-3)Gal(b1-4)[Fuc(a1-3)]GlcNAc(b1-2)Man(a1-6)]Man(b1-4)GlcNAc(b1-4)GlcNAc
# Summary of the method: as §1
# Gal(a1-3)GalNAc = molecular target: Gal(a1-3)GalNAc
# Summary of the method: as §1
# [3] = molecular target: Gal(a1-3)[Gal(a1-4)]Gal(b1-4)GlcNAc
# Summary of the method: as §1
# [4] = molecular target: Gal(a1-4)Gal(b1-3)GlcNAc(b1-2)Man(a1-3)[Gal(a1-4)Gal(b1-3)GlcNAc(b1-2)Man(a1-6)]Man(b1-4)GlcNAc(b1-4)GlcNAc
# Summary of the method: as §1
# Gal(a1-4)Gal(b1-4)Glc = molecular target: Gal(a1-4)Gal(b1-4)Glc
# Summary of the method: as §1
# Gal(a1-4)Gal(b1-4)GlcNAc = molecular target: Gal(a1-4)Gal(b1-4)GlcNAc
# Summary of the method: as §1
# [5] = molecular target: Gal(a1-4)Gal(b1-4)GlcNAc(b1-2)Man(a1-3)[Gal(a1-4)Gal(b1-4)GlcNAc(b1-2)Man(a1-6)]Man(b1-4)GlcNAc(b1-4)GlcNAc
# Summary of the method: as §1
# [6] = molecular target: Gal(a1-4)Gal(b1-4)GlcNAc(b1-3)Gal(b1-4)Glc
# Summary of the method: as §1
# Gal(a1-4)GlcNAc = molecular target: Gal(a1-4)GlcNAc
# Summary of the method: as §1
# Gal(a1-6)Glc = molecular target: Gal(a1-6)Glc
# Summary of the method: as §1
# Gal(b1-2)Gal = molecular target: Gal(b1-2)Gal
# Summary of the method: as §1
# Gal(b1-3)Gal = molecular target: Gal(b1-3)Gal
# Summary of the method: as §1
# Gal(b1-3)Gal(b1-4)GlcNAc = molecular target: Gal(b1-3)Gal(b1-4)GlcNAc
# Summary of the method: as §1
# [7] = molecular target: Gal(b1-3)Gal(b1-4)GlcNAc(b1-2)Man(a1-3)[Gal(b1-3)Gal(b1-4)GlcNAc(b1-2)Man(a1-6)]Man(b1-4)GlcNAc(b1-4)GlcNAc
# Summary of the method: as §1
# Gal(b1-3)GalNAc = molecular target: Gal(b1-3)GalNAc
# Summary of the method: as §1
# [8] = molecular target: Gal(b1-3)GalNAc(a1-3)[Fuc(a1-2)]Gal(b1-4)Glc
# Summary of the method: as §1
# [9] = molecular target: Gal(b1-3)GalNAc(a1-3)[Fuc(a1-2)]Gal(b1-4)GlcNAc
# Summary of the method: as §1
# [10] = molecular target: Gal(b1-3)GalNAc(b1-3)Gal(a1-4)Gal(b1-4)Glc
# Summary of the method: as §1
# [11] = molecular target: Gal(b1-3)GalNAc(b1-4)Gal(b1-4)Glc
# Summary of the method: as §1
# [12] = molecular target: Gal(b1-3)GalNAc(b1-4)[Neu5Ac(a2-3)]Gal(b1-4)Glc
# Summary of the method: as §1
# Gal(b1-3)GlcNAc = molecular target: Gal(b1-3)GlcNAc
# Summary of the method: as §1
# [13] = molecular target: Gal(b1-3)GlcNAc(a1-6)Gal(b1-4)GlcNAc
# Summary of the method: as §1
# [14] = molecular target: Gal(b1-3)GlcNAc(b1-2)Man(a1-3)[Gal(b1-3)GlcNAc(b1-2)Man(a1-6)]Man(b1-4)GlcNAc(b1-4)GlcNAc
# Summary of the method: as §1
# [15] = molecular target: Gal(b1-3)GlcNAc(b1-2)Man(a1-3)[Gal(b1-3)GlcNAc(b1-2)Man(a1-6)]Man(b1-4)GlcNAc(b1-4)[Fuc(a1-6)]GlcNAc
# Summary of the method: as §1
# [16] = molecular target: Gal(b1-3)GlcNAc(b1-2)[Gal(b1-3)GlcNAc(b1-6)]Man(a1-6)[Gal(b1-3)GlcNAc(b1-2)Man(a1-3)]Man(b1-4)GlcNAc(b1-4)GlcNAc
# Summary of the method: as §1
# [17] = molecular target: Gal(b1-3)GlcNAc(b1-3)Gal(b1-3)GlcNAc
# Summary of the method: as §1
# [18] = molecular target: Gal(b1-3)GlcNAc(b1-3)Gal(b1-4)Glc
# Summary of the method: as §1
# [19] = molecular target: Gal(b1-3)GlcNAc(b1-3)Gal(b1-4)GlcNAc
# Summary of the method: as §1
# [20] = molecular target: Gal(b1-3)GlcNAc(b1-3)Gal(b1-4)GlcNAc(b1-6)[Gal(b1-3)GlcNAc(b1-3)]Gal(b1-4)Glc
# Summary of the method: as §1
# [21] = molecular target: Gal(b1-3)GlcNAc(b1-3)Gal(b1-4)[Fuc(a1-3)]GlcNAc(b1-6)[Gal(b1-3)GlcNAc(b1-3)]Gal(b1-4)Glc
# Summary of the method: as §1
# [22] = molecular target: Gal(b1-3)GlcNAc(b1-3)GalNAc
# Summary of the method: as §1
# [23] = molecular target: Gal(b1-3)GlcNAc(b1-6)Gal(b1-4)GlcNAc
# Summary of the method: as §1
# [24] = molecular target: Gal(b1-3)[Fuc(a1-4)]GlcNAc
# Summary of the method: as §1
# [25] = molecular target: Gal(b1-3)[Fuc(a1-4)]GlcNAc(b1-2)Man(a1-3)[Gal(b1-3)[Fuc(a1-4)]GlcNAc(b1-2)Man(a1-6)]Man(b1-4)GlcNAc(b1-4)GlcNAc
# Summary of the method: as §1
# [26] = molecular target: Gal(b1-3)[Fuc(a1-4)]GlcNAc(b1-2)Man(a1-3)[Gal(b1-3)[Fuc(a1-4)]GlcNAc(b1-2)Man(a1-6)]Man(b1-4)GlcNAc(b1-4)[Fuc(a1-6)]GlcNAc
# Summary of the method: as §1
# [27] = molecular target: Gal(b1-3)[Fuc(a1-4)]GlcNAc(b1-3)Gal(b1-3)[Fuc(a1-4)]GlcNAc
# Summary of the method: as §1
binder,measurement,setting,value
B1,glycan array binding signal (z-score),[1],0.169
same,glycan array binding signal (z-score),[2],0.379
same,glycan array binding signal (z-score),Gal(a1-3)GalNAc,-0.341
same,glycan array binding signal (z-score),[3],-0.539
same,glycan array binding signal (z-score),[4],0.228
same,glycan array binding signal (z-score),Gal(a1-4)Gal(b1-4)Glc,-0.554
same,glycan array binding signal (z-score),Gal(a1-4)Gal(b1-4)GlcNAc,-0.482
same,glycan array binding signal (z-score),[5],-0.366
same,glycan array binding signal (z-score),[6],-0.01
same,glycan array binding signal (z-score),Gal(a1-4)GlcNAc,-0.518
same,glycan array binding signal (z-score),Gal(a1-6)Glc,-0.423
same,glycan array binding signal (z-score),Gal(b1-2)Gal,-0.357
same,glycan array binding signal (z-score),Gal(b1-3)Gal,-0.552
same,glycan array binding signal (z-score),Gal(b1-3)Gal(b1-4)GlcNAc,-0.509
same,glycan array binding signal (z-score),[7],-0.329
same,glycan array binding signal (z-score),Gal(b1-3)GalNAc,-0.309
same,glycan array binding signal (z-score),[8],-0.41
same,glycan array binding signal (z-score),[9],-0.415
same,glycan array binding signal (z-score),[10],-0.231
same,glycan array binding signal (z-score),[11],-0.298
same,glycan array binding signal (z-score),[12],1.17
same,glycan array binding signal (z-score),Gal(b1-3)GlcNAc,-0.554
same,glycan array binding signal (z-score),[13],-0.469
same,glycan array binding signal (z-score),[14],1.27
same,glycan array binding signal (z-score),[15],0.652
same,glycan array binding signal (z-score),[16],-0.425
same,glycan array binding signal (z-score),[17],-0.48
same,glycan array binding signal (z-score),[18],-0.527
same,glycan array binding signal (z-score),[19],-0.52
same,glycan array binding signal (z-score),[20],-0.273
same,glycan array binding signal (z-score),[21],-0.337
same,glycan array binding signal (z-score),[22],-0.374
same,glycan array binding signal (z-score),[23],-0.408
same,glycan array binding signal (z-score),[24],-0.398
same,glycan array binding signal (z-score),[25],-0.181
same,glycan array binding signal (z-score),[26],-0.406
same,glycan array binding signal (z-score),[27],-0.453
